In assay [1] the target is ECM (extracellular matrix). The assay can be described thus: ECL plate assay on coated ECM (Matrigel).
The target of assay [2] is ECM (extracellular matrix). Put plainly: ECL plate assay on coated ECM (Matrigel). The source holds these as a separate data set.

Residue numbers refer to the chain shown, from its start. Like-named read-outs stand apart in the source and are kept apart here.

B1: hT4VL.FRv40129 (antibody, human IgG1, kappa)
heavy: EVQLVESGGGLVQPGGSLRLSCAASGYTFTSYVMHWVRQAPGKGLEWVSAINPYNDGNYYADSVKGRFTISRDNSRKTLYLQMNSLRAEDTAVYYCARGAYKRGYAMDYWGQGTTVTVSSASTKGPSVFPLAPSSKSTSGGTAALGCLVKDYFPEPVTVSWNSGALTSGVHTFPAVLQSSGLYSLSSVVTVPSSSLGTQTYICNVNHKPSNTKVDKKV[human IgG1 Fc not given here]GSGGGSVTGYRLFEEIL
light: DLVMTQSPSSLSASVGDRVTITCKSSQSLFESRTRKNYLAWYQQKPGKAPKLLIYWASTRESGVPARFSGSGSGTDFTLTISSLEPEDFAVYYCQQYYYHMYTFGQGTKVEIKRTVAAPSVFIFPPSDEQLKSGTASVVCLLNNFYPREAKVQWKVDNALQSGNSQESVTEQDSKDSTYSLSSTLTLSKADYEKHKVYACEVTHQGLSSPVTKSFNRGEC
Take B1: in assay [1], the ECM binding vs Control Ab (pH 5.8) (fold vs Control Ab) was found to be 59.3 and the ECM binding vs Control Ab (pH 7.4) (fold vs Control Ab) amounted to 6.7.

B2: hT4VL.FRv40212 (antibody, human IgG1, kappa)
heavy: B1 heavy
light: B1 light with E31N, R35S
B2: in assay [1], the ECM binding vs Control Ab (pH 5.8) (fold vs Control Ab) was 93.9 and the ECM binding vs Control Ab (pH 7.4) (fold vs Control Ab) amounted to 6.1.

B3: hT4VL.FRv40171 (antibody, human IgG1, kappa)
heavy: B1 heavy
light: B1 light with E31N, R33L
Regarding B3, in assay [1], the ECM binding vs Control Ab (pH 5.8) (fold vs Control Ab) is 28.1 and the ECM binding vs Control Ab (pH 7.4) (fold vs Control Ab) came out at 2.9.

B4: hT4VL.FRv40164 (antibody, human IgG1, kappa)
heavy: B1 heavy
light: B1 light with E31N, R33D
Consider B4, for which, in assay [1], the ECM binding vs Control Ab (pH 5.8) (fold vs Control Ab) worked out at 12.3 and the ECM binding vs Control Ab (pH 7.4) (fold vs Control Ab) came to 1.3.

B5: hT4VL.FRv40345 (antibody, human IgG1, kappa)
heavy: B1 heavy
light: B1 light with E31N, Y97E
In the case of B5, in assay [1], the ECM binding vs Control Ab (pH 5.8) (fold vs Control Ab) came to 97.2 and the ECM binding vs Control Ab (pH 7.4) (fold vs Control Ab) is 9.6.

B6: hT4VL.FRv40057 (antibody, human IgG1, kappa)
heavy: B1 heavy
light: B1 light with Q27E, E31N
On to B6, for which, in assay [1], the ECM binding vs Control Ab (pH 5.8) (fold vs Control Ab) stood at 103 and the ECM binding vs Control Ab (pH 7.4) (fold vs Control Ab) was found to be 9.

B7: hT4VL.FRv40201 (antibody, human IgG1, kappa)
heavy: B1 heavy
light: B1 light with E31N, R35E
B7: in assay [1], the ECM binding vs Control Ab (pH 5.8) (fold vs Control Ab) was 58.2 and the ECM binding vs Control Ab (pH 7.4) (fold vs Control Ab) worked out at 3.5.

B8: hT4VL.FRv40010 (antibody, human IgG1, kappa)
heavy: B1 heavy
light: B1 light with K24N, E31N
B8 showed an ECM binding vs Control Ab (pH 5.8) (fold vs Control Ab) in assay [1] of 102.

B9: hT4VL.FRv40182 (antibody, human IgG1, kappa)
heavy: B1 heavy
light: B1 light with E31N, T34D
B9: in assay [1], the ECM binding vs Control Ab (pH 5.8) (fold vs Control Ab) amounted to 34.5 and the ECM binding vs Control Ab (pH 7.4) (fold vs Control Ab) amounted to 5.2.

B10: hT4VL.FRv40228 (antibody, human IgG1, kappa)
heavy: B1 heavy
light: B1 light with E31N, K36Q
Regarding B10, in assay [1], the ECM binding vs Control Ab (pH 5.8) (fold vs Control Ab) amounted to 63.7 and the ECM binding vs Control Ab (pH 7.4) (fold vs Control Ab) came out at 7.7.

B11: hT4VL.FRv40313 (antibody, human IgG1, kappa)
heavy: B1 heavy
light: B1 light with E31N, Q95I
As to B11, in assay [1], the ECM binding vs Control Ab (pH 5.8) (fold vs Control Ab) amounted to 102 and the ECM binding vs Control Ab (pH 7.4) (fold vs Control Ab) amounted to 14.5.

B12: hT4VL.FRv40170 (antibody, human IgG1, kappa)
heavy: B1 heavy
light: B1 light with E31N, R33K
Consider B12, for which, in assay [1], the ECM binding vs Control Ab (pH 5.8) (fold vs Control Ab) was 92.9 and the ECM binding vs Control Ab (pH 7.4) (fold vs Control Ab) worked out at 8.5.

B13: hT4VL.FRv40324 (antibody, human IgG1, kappa)
heavy: B1 heavy
light: B1 light with E31N, Q95Y
Turning to B13, in assay [1], the ECM binding vs Control Ab (pH 5.8) (fold vs Control Ab) is 98.1 and the ECM binding vs Control Ab (pH 7.4) (fold vs Control Ab) worked out at 14.

B14: hT4VL.FRv40321 (antibody, human IgG1, kappa)
heavy: B1 heavy
light: B1 light with E31N, Q95T
Consider B14, for which, in assay [1], the ECM binding vs Control Ab (pH 5.8) (fold vs Control Ab) worked out at 102 and the ECM binding vs Control Ab (pH 7.4) (fold vs Control Ab) stood at 19.3.

B15: hT4VL.FRv40538 (antibody, human IgG1, kappa)
heavy: B1 heavy
light: B1 light with E31N, R33S, R35S, Y97F, H100Q, M101P
For the molecule B15, in assay [2], the ECM binding vs Control Ab (pH 5.8) (fold vs Control Ab) is 3.84 and the ECM binding vs Control Ab (pH 7.4) (fold vs Control Ab) was 0.72.

B16: hT4VL.FRv40168 (antibody, human IgG1, kappa)
heavy: B1 heavy
light: B1 light with E31N, R33H
In the case of B16, in assay [1], the ECM binding vs Control Ab (pH 5.8) (fold vs Control Ab) turned out to be 97 and the ECM binding vs Control Ab (pH 7.4) (fold vs Control Ab) was 5.1.

B17: hT4VL.FRv40535 (antibody, human IgG1, kappa)
heavy: B1 heavy
light: B1 light with E31N, R33S, R35S, Q95H, H100Q, M101P
On to B17, for which, in assay [2], the ECM binding vs Control Ab (pH 5.8) (fold vs Control Ab) worked out at 2.14 and the ECM binding vs Control Ab (pH 7.4) (fold vs Control Ab) worked out at 0.49.

B18: hT4VL.FRv40178 (antibody, human IgG1, kappa)
heavy: B1 heavy
light: B1 light with E31N, R33V
B18: in assay [1], the ECM binding vs Control Ab (pH 5.8) (fold vs Control Ab) came to 27.7 and the ECM binding vs Control Ab (pH 7.4) (fold vs Control Ab) is 2.6.

B19: hT4VL.FRv40534 (antibody, human IgG1, kappa)
heavy: B1 heavy
light: B1 light with E31N, R33S, R35S, Y97F, H100E, M101P
Turning to B19, in assay [2], the ECM binding vs Control Ab (pH 5.8) (fold vs Control Ab) turned out to be 1.8 and the ECM binding vs Control Ab (pH 7.4) (fold vs Control Ab) was found to be 0.48.

B20: hT4VL.FRv40176 (antibody, human IgG1, kappa)
heavy: B1 heavy
light: B1 light with E31N, R33S
As for B20, in assay [1], the ECM binding vs Control Ab (pH 5.8) (fold vs Control Ab) worked out at 35.4 and the ECM binding vs Control Ab (pH 7.4) (fold vs Control Ab) was 3.3.

B21: hT4VL.FRv40224 (antibody, human IgG1, kappa)
heavy: B1 heavy
light: B1 light with E31N, K36L
For the molecule B21, in assay [1], the ECM binding vs Control Ab (pH 5.8) (fold vs Control Ab) is 76.9 and the ECM binding vs Control Ab (pH 7.4) (fold vs Control Ab) was found to be 8.6.

B22: hT4VL.FRv40146 (antibody, human IgG1, kappa)
heavy: B1 heavy
light: B1 light with E31N, S32D
Turning to B22, in assay [1], the ECM binding vs Control Ab (pH 5.8) (fold vs Control Ab) is 61.6 and the ECM binding vs Control Ab (pH 7.4) (fold vs Control Ab) came to 5.3.

B23: hT4VL.FRv40533 (antibody, human IgG1, kappa)
heavy: B1 heavy
light: B1 light with E31N, R33S, R35S, Y97E, H100E, M101P
On to B23, for which, in assay [2], the ECM binding vs Control Ab (pH 5.8) (fold vs Control Ab) is 2.36 and the ECM binding vs Control Ab (pH 7.4) (fold vs Control Ab) came to 0.44.

B24: hT4VL.FRv40203 (antibody, human IgG1, kappa)
heavy: B1 heavy
light: B1 light with E31N, R35G
B24: in assay [1], the ECM binding vs Control Ab (pH 5.8) (fold vs Control Ab) amounted to 90.2 and the ECM binding vs Control Ab (pH 7.4) (fold vs Control Ab) amounted to 5.3.

B25: hT4VL.FRv40540 (antibody, human IgG1, kappa)
heavy: B1 heavy
light: B1 light with R33S, R35S, Y97F, H100Q, M101P
In the case of B25, in assay [2], the ECM binding vs Control Ab (pH 5.8) (fold vs Control Ab) was found to be 4.09 and the ECM binding vs Control Ab (pH 7.4) (fold vs Control Ab) worked out at 1.03.

B26: hT4VL.FRv40255 (antibody, human IgG1, kappa)
heavy: B1 heavy
light: B1 light with E31N, Y38E
For the molecule B26, in assay [1], the ECM binding vs Control Ab (pH 5.8) (fold vs Control Ab) came out at 31.3 and the ECM binding vs Control Ab (pH 7.4) (fold vs Control Ab) came to 4.5.

B27: hT4VL.FRv40536 (antibody, human IgG1, kappa)
heavy: B1 heavy
light: B1 light with E31N, R33S, R35S, Q95Y, H100Q, M101P
With B27, in assay [2], the ECM binding vs Control Ab (pH 5.8) (fold vs Control Ab) came to 15.7 and the ECM binding vs Control Ab (pH 7.4) (fold vs Control Ab) was determined as 0.7.

B28: hT4VL.FRv40312 (antibody, human IgG1, kappa)
heavy: B1 heavy
light: B1 light with E31N, Q95H
As to B28, in assay [1], the ECM binding vs Control Ab (pH 5.8) (fold vs Control Ab) is 100 and the ECM binding vs Control Ab (pH 7.4) (fold vs Control Ab) came to 14.

B29: hT4VL.FRv40147 (antibody, human IgG1, kappa)
heavy: B1 heavy
light: B1 light with E31N, S32E
B29: in assay [1], the ECM binding vs Control Ab (pH 5.8) (fold vs Control Ab) came out at 75.8 and the ECM binding vs Control Ab (pH 7.4) (fold vs Control Ab) amounted to 5.6.

B30: hT4VL.FRv40539 (antibody, human IgG1, kappa)
heavy: B1 heavy
light: B1 light with R33S, R35S, Q95Y, H100Q, M101P
For B30, in assay [2], the ECM binding vs Control Ab (pH 5.8) (fold vs Control Ab) worked out at 10.3 and the ECM binding vs Control Ab (pH 7.4) (fold vs Control Ab) worked out at 1.27.

B31: hT4VL.FRv40208 (antibody, human IgG1, kappa)
heavy: B1 heavy
light: B1 light with E31N, R35M
Take B31: in assay [1], the ECM binding vs Control Ab (pH 5.8) (fold vs Control Ab) stood at 80.1 and the ECM binding vs Control Ab (pH 7.4) (fold vs Control Ab) came out at 5.2.

B32: hT4VL.FRv40537 (antibody, human IgG1, kappa)
heavy: B1 heavy
light: B1 light with E31N, R33S, R35S, Y97E, H100Q, M101P
For B32, in assay [2], the ECM binding vs Control Ab (pH 5.8) (fold vs Control Ab) worked out at 2.87 and the ECM binding vs Control Ab (pH 7.4) (fold vs Control Ab) turned out to be 0.51.
